Screen size: about 5,400 compounds; about 190 (3.5%) showed an effect of 50% or more. The list shows a part of the results.
These molecules were tested on Vero-E6 (assay: primary screen, phospholipidosis by LipidTOX staining; higher = more effect of the substance). Details: 10 µM.
How it was run: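 Single-concentration screen at 10 μM, with DMSO 0.1 v/v % and amiodarone 10 μM as controls. Read-out is LipidTOX Red phospholipid staining, which tolerates aldehyde fixation, in Vero-E6 cells.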
For `Cc1cc(-c2nc(-c3ccc(OC(F)(F)F)cc3)no2)nn1Cc1ccnc(N2CCN(C3CC3)CC2)c1`, the result_ITMP was -1.58%. For `COC(=O)[C@H]1[C@H]2C[C@@H]3c4[nH]c5cc(OC)ccc5c4CCN3C[C@H]2C[C@@H](OC(=O)c2cc(OC)c(OC)c(OC)c2)[C@@H]1OC`, the result_ITMP was 43.5%. In the case of `COc1cc2c(cc1OC)-c1cc3ccc(OC)c(OC)c3c[n+]1CC2`, the result_ITMP is reported as -5.54%. Molecule `CC(C)C[C@H](NC(=O)[C@@H](O)[C@H](N)Cc1ccccc1)C(=O)O` has a result_ITMP of -1.61%. Molecule `COc1cc([C@@H]2c3cc4c(cc3[C@H](O)[C@H]3COC(=O)[C@H]23)OCO4)cc(OC)c1OC` has a result_ITMP of 14.3%. For `C=CCc1ccc(O)c(-c2ccc(O)c(CC=C)c2)c1`, the result_ITMP was -3.16%. `O=P(O)(O)C(O)(Cc1cnc2ccccn12)P(=O)(O)O` was tested, and the result_ITMP was 6.24%. `O=C([O-])CCCO` showed a result_ITMP of -1.27%. `CCOC(=O)Nc1ccc2c(c1)N(C(=O)CCN1CCOCC1)c1ccccc1S2` gave a result_ITMP of -8.3%. `O=c1c(-c2ccc(O)cc2)coc2cc(O)cc(O)c12` was tested, and the result_ITMP was -2.31%. With `OCc1ccc(-c2ccc(-c3ccc(CO)s3)o2)s1` the result_ITMP was -3.85%. With `Cc1cn(C2CC(N=[N+]=[N-])C(CO)O2)c(=O)[nH]c1=O` (stereo not shown) the result_ITMP was -4.18%. `N[C@H](Cc1ccccc1)C(=O)O` showed a result_ITMP of 3.69%. Work on `O=C(O)c1ccc(Nc2ncc3c(n2)-c2ccc(Cl)cc2C(c2c(F)cccc2F)=NC3)cc1` yielded a result_ITMP of -2.95%. `Nc1c2c(nc3c1CCC3)CCCC2` showed a result_ITMP of -8.81%. `C[C@H](NC(=O)Cc1cc(F)cc(F)c1)C(=O)N[C@@H]1C(=O)N(C)c2ccccc2-c2ccccc21` gave a result_ITMP of -3.47%. `O=C(NOCCO)c1cc(CN2OCCCC2=O)c(F)c(F)c1Nc1ccc(I)cc1F` was tested, and the result_ITMP was -1.3%. In the case of `CC(N)Cc1cccc(O)c1` (stereo not shown), the result_ITMP is reported as -6.46%. In the case of `O=[N+]([O-])c1ccc([As](=O)(O)O)cc1`, the result_ITMP is reported as -5.95%. In the case of `O=C(Nc1cc(Cl)cc(Cl)c1O)c1c(O)c(Cl)cc(Cl)c1Cl`, the result_ITMP is reported as -8.29%. For `Cc1nn(C)c2nc(NNC(=O)Nc3cc(Cl)nc(Cl)c3)cc(C(C)C)c12`, the result_ITMP was 1.13%. Molecule `C[C@@H](c1ncncc1F)[C@](O)(Cn1cncn1)c1ccc(F)cc1F` has a result_ITMP of 1.21%. In the case of `CN(C)NC(=O)CCC(=O)O`, the result_ITMP is reported as -1.95%. `O=c1[nH]c(=O)n([C@H]2CCCO2)cc1F` showed a result_ITMP of -4.71%. `CN[C@@H](C)[C@H]1[C@H](O)C[C@@]2(C)[C@@H]3CC[C@H]4C(C)(C)[C@@H](NC)CC[C@@]45C[C@@]35CC[C@]12C` gave a result_ITMP of 8.26%. `CN1CCN(CCCN2c3ccccc3Sc3ccc(S(=O)(=O)N(C)C)cc32)CC1` gave a result_ITMP of 50.3%. `CN(C)CCCNC(=O)c1ccc(-c2cc(O)c3ncccc3c2)cc1` was tested, and the result_ITMP was -0.58%. `C[C@@H]1CC(=O)NN=C1c1ccc(NN=C(C#N)C#N)cc1` gave a result_ITMP of -4.23%. `COc1cccc(OC)c1-c1ccc(C[C@H](NC(=O)c2c(Cl)cccc2Cl)C(=O)O)cc1` was tested, and the result_ITMP was -1.59%. For `COc1ccc(-c2nc(C(=O)N3CCN(C)CC3)sc2-c2ccc(OC)cc2)cc1`, the result_ITMP was 2.32%. `CCN(C(C)=O)c1cccc(-c2ccnc3c(C#N)cnn23)c1` gave a result_ITMP of -1.2%. Molecule `CC(=O)Oc1cc(C(F)(F)F)ccc1C(=O)O` has a result_ITMP of -2.73%. `N=c1ccn2c(n1)O[C@H]1[C@H](O)[C@@H](CO)O[C@H]12` showed a result_ITMP of 0.88%. Molecule `CC(=O)Oc1c(C)cccc1C(=O)O` has a result_ITMP of 0.62%. Work on `CCCCCCCC/C=C\CCCCCCCC(=O)NCc1ccc(O)c(OC)c1` yielded a result_ITMP of -2.16%. `C[C@H](CCC(=O)O)[C@H]1CC[C@H]2[C@@H]3[C@H](O)C[C@@H]4C[C@H](O)CC[C@]4(C)[C@H]3CC[C@]12C` showed a result_ITMP of -4.84%. In the case of `O=c1[nH]cc(F)c(=O)[nH]1`, the result_ITMP is reported as -3.49%. In the case of `O=C1NCCNC1c1cccs1` (stereo not shown), the result_ITMP is reported as -5.38%. For `NCCc1c[nH]c2ccc(O)cc12`, the result_ITMP was -2.96%. `O=c1ncn2nc(Sc3ccc(F)cc3F)ccc2c1-c1c(Cl)cccc1Cl` gave a result_ITMP of -4.94%. With `Cc1cncc(CN2CCC(=C3c4ccc(Cl)cc4CCc4cccnc43)CC2)c1` the result_ITMP was 3.19%. In the case of `CS(=O)(=O)c1ccc([C@@H](O)[C@@H](CO)NC(=O)C(Cl)Cl)cc1`, the result_ITMP is reported as -7.96%. `CO/N=C(\C(=O)N[C@@H]1C(=O)N2C(C(=O)[O-])=C(C[n+]3ccn4ncccc43)CS[C@H]12)c1nsc(N)n1` was tested, and the result_ITMP was -0.4%. With `NS(=O)(=O)c1cc2c(cc1Cl)N=C(CSCc1ccccc1)NS2(=O)=O` the result_ITMP was -4.59%. `CCCCC(=O)OCC(=O)[C@]1(O)Cc2c(O)c3c(c(O)c2[C@@H](O[C@H]2C[C@H](NC(=O)C(F)(F)F)[C@H](O)[C@H](C)O2)C1)C(=O)c1c(OC)cccc1C3=O` was tested, and the result_ITMP was 1.73%. `CCC(COC(=O)c1cc(OC)c(OC)c(OC)c1)(c1ccccc1)N(C)C` (stereo not shown) gave a result_ITMP of 3.57%. `Clc1ccc2c(c1)N=C(N1CCNCC1)c1ccccc1N2` gave a result_ITMP of 77.7%. Molecule `CCOc1cc2ncc(C#N)c(Nc3ccc(OCc4cccc(F)c4)c(Cl)c3)c2cc1NC(=O)/C=C/CN(C)C` has a result_ITMP of -0.47%. With `CC(=O)OC/C=C(C)/C=C/C=C(C)/C=C/C1=C(C)CCCC1(C)C` the result_ITMP was -3.31%. `O=C(Cc1ccc(-c2ccccc2)cc1)Nc1ccccn1` showed a result_ITMP of -3.31%. For `O=C1NC(=O)/C(=C/c2ccc(-c3ccc(F)cc3O)o2)S1`, the result_ITMP was -1.97%. Work on `CC(C)CCN1c2nc(Nc3cc(F)c(O)c(F)c3)ncc2N(C)C(=O)C1C` (stereo not shown) yielded a result_ITMP of 17.5%. `O=C(NC1Cc2ccccc2N(C[C@@H](O)CO)C1=O)c1cc2cc(Cl)sc2[nH]1` (stereo partly shown) gave a result_ITMP of -3.43%. For `CC[C@@H](c1ccc(F)c(F)c1)n1c(C(=O)OC)c(-c2ccno2)[nH]c1=S`, the result_ITMP was -7.81%. For `Cc1cnc(Nc2ccc(N3CCN(C)CC3)cc2)nc1Nc1cccc(S(=O)(=O)NC(C)(C)C)c1`, the result_ITMP was 21.8%. In the case of `CCC[C@H](N[C@@H](C)C(=O)N1[C@H](C(=O)O)C[C@@H]2CCCC[C@@H]21)C(=O)O`, the result_ITMP is reported as -15.7%. In the case of `CCC(c1ccc(O)cc1)C(CC)c1ccc(O)cc1` (stereo not shown), the result_ITMP is reported as -2.92%. In the case of `NC1(c2ccc(-c3nc4ccn5c(=O)[nH]nc5c4cc3-c3ccccc3)cc2)CCC1`, the result_ITMP is reported as 87.1%.

Reference: publication PMC13083723 (Patterns, 2026)
